Source: the supplement of paper PMC12217912
This is one part of the list. The full chains were built here from the parent and the listed change. Values near 0.05 are background.

B1: TEV protease; numbered along this chain (parent)
chain: MGESLFKGPRDYNPISSSICHLTNESDGHTTSLYGIGFGPFIITNKHLFRRNNGTLVVQSLHGVFKVKDTTTLQQHLVDGRDMIIIRMPKDFPPFPQKLKFREPQREERICLVTTNFQTKSMSSMVSDTSCTFPSGDGIFWKHWIQTKDGQCGSPLVSTRDGFIVGIHSASNFTNTNNYFTSVPKNFMELLTNQEAQQWVSGWRLNADSVLWGGHKVFMVKPEEPFQPVKEATQL

Variants of: B1
Experiment: raw area under fraction-flipped curve 0-4 h after induction (AUC4h, not background-subtracted), DNA-recorder readout of cleavage of the substrate (dimensionless); higher = more cleavage of the substrate by the protease variant
Conditions: temperature: 34 °C; time window: 0-4 h after rhamnose induction
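Note: Bxb1 expression induced with 0.2% (w/v) L-rhamnose at OD600 near 0.5, cultures sampled hourly, flipped fraction per protease–substrate barcode pair counted by paired-end Illumina sequencing.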

Variant	area with substrate ENLYFQC	area with substrate ENLYFQH	area with substrate ENLYFQL	area with substrate ENLYFQN	area with substrate ENLYFQR	area with substrate ENLYFQS	area with substrate ENLYFQT	area with substrate ENLYFQV	area with substrate ENLYFQW	area with substrate ENLYFQY	area with substrate ENLYFQF	area with substrate ENLYFQI	area with substrate ENLYFQK	area with substrate ENLYFQM	area with substrate ENLYFQD	area with substrate ENLYFQQ	area with substrate ENLYFQE	area with substrate ENLYFQP	area with substrate ENLYFQG
R109H	0.141	0.0766	0.0589	0.0706	0.0605	0.0959	0.0648	0.0642	0.0596	0.0929									
K148I	0.107	0.0388	0.077		0.0666	0.1	0.0631				0.0763	0.0556	0.0648	0.085					
N206T	0.101		0.0606	0.0813	0.0618	0.117			0.0718	0.0904					0.0715	0.0861			
F92A	0.101	0.0887		0.0791	0.0531	0.0954		0.0634	0.0596	0.0852	0.0682			0.0777	0.0678	0.0662	0.0346	0.0514	
R106H	0.124		0.0563	0.0906	0.0603	0.0988	0.0626		0.072	0.105		0.0548	0.0667	0.0899				0.0713	
D137K	0.0899	0.0803	0.0561		0.0424	0.0899	0.0613		0.0708	0.0734		0.0642		0.0899	0.0806				0.0804
D149K	0.0879		0.067	0.0841	0.0532	0.0862				0.0596	0.0646		0.0524	0.0607			0.07	0.0545	0.0819
I85M	0.122	0.0781	0.0713	0.0976	0.0645	0.107	0.0688	0.0688	0.0638			0.0609	0.0604			0.0631	0.0673	0.055	
E195F	0.117		0.0333	0.0708		0.0946	0.0656	0.0529		0.0946		0.0764					0.0879		0.0851
D69I	0.0872		0.0542			0.0703	0.0507	0.0313		0.0642					0.0605		0.0479		0.0706
V165F	0.0506		0.022	0.0545	0.0467	0.0503	0.0526	0.0425	0.0568				0.0492	0.0556					0.0481
L22R	0.0256	0.0456	0.0518	0.0364	0.0318	0.048	0.0315		0.0302	0.0453			0.0492	0.0352		0.039			
S169R	0.0755		0.0632	0.0632	0.0829	0.0611	0.0664	0.0469	0.0622						0.0687	0.0628		0.0527	0.147
E108V	0.0653	0.054	0.0593		0.0544	0.0621	0.0519	0.0458	0.0615	0.0649			0.0593	0.061			0.0419		0.0642
T181Y	0.0589	0.0792	0.0434	0.0463	0.0486	0.0565			0.069	0.063	0.0536	0.0525	0.0529	0.0621	0.0349	0.0457			
S60D	0.0848	0.0748	0.0482	0.0582	0.0406	0.0865	0.0506	0.0507	0.0624				0.0766	0.0909				0.047	0.078
N175D	0.0654	0.0498	0.0548	0.0626	0.0586	0.0673		0.068	0.0619		0.0581	0.0452		0.0686	0.0643	0.0587	0.0602	0.0525	0.0634
N53I	0.109	0.0773	0.0282	0.0677	0.0612	0.0772	0.0613	0.0663		0.0598	0.0599	0.0606	0.0512		0.0503			0.0568	0.0794
F187H	0.0702		0.0465	0.0399	0.0601	0.0645	0.0569	0.0501	0.0452		0.0659	0.0613	0.0486	0.063	0.0576		0.0695	0.0633	0.0643
R204W	0.144	0.0777	0.0634	0.0843	0.0597	0.111	0.0589	0.0506	0.06	0.0835		0.054	0.0744	0.115	0.0699				0.101
K100S	0.111		0.0561	0.0823	0.0802	0.0995	0.0843	0.0502	0.0731	0.0732	0.0963	0.0811		0.0888	0.0774			0.0553	
D79I	0.103			0.0824	0.0512	0.0923	0.0566		0.0674					0.0957					
K46Q	0.0764		0.0583	0.0638	0.0643	0.101	0.0508	0.0655				0.0471		0.0718					0.115
K46H	0.0539	0.0574	0.0597	0.0337		0.0621		0.0571		0.016	0.0589		0.0595		0.0531			0.0499	0.0618
E223R			0.0718		0.0678	0.0929	0.0546	0.0611	0.0746			0.0543		0.0789	0.0691				0.0951
E107K		0.0893	0.0527	0.0806	0.0648	0.103		0.072	0.0642	0.0747	0.0785	0.0636			0.0727	0.105			0.12
K230T		0.0747	0.0656	0.0647	0.0765	0.103	0.102		0.0606	0.0798		0.0519	0.084	0.0769	0.0875			0.0542	0.0973
M122H		0.0766	0.0633	0.0845	0.0486	0.106	0.066		0.0607	0.0638	0.0866	0.0621	0.0643	0.0785	0.0721			0.049	0.0925
